Results from PubChem BioAssay AID1745845 (National Center for Advancing Translational Sciences (NCATS), 2022).
The campaign covered roughly 360,000 compounds. About 2,600 (0.72%) were called active. This list was built around the results that the source calls inconclusive (neither active nor inactive); the mix of calls is not that of the screen. Calls follow the shape of the dose curve; as a rule, active = well fitted inhibition curve with a large enough effect; inconclusive = small, poorly fitted or top-dose-only effect; inactive = no such curve, though single readings can be large or run the other way. Potencies beside an inconclusive call are fits to weak or partial responses and may not hold up.

Experiment: Primary qHTS for Inhibitors of ATXN expression; also: nearly all actives have a fitted effect of over 55% in size
Conditions: HEK-293 ATXN2-luciferase reporter, luminescence, 24 h; series mostly up to 57 µM
Outline: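 qHTS (up to 57 uM final) was run with 24 h compound exposure of reporter cells at 37 °C. Each well was multiplexed: SteadyGlo luminescence measured ATXN2-luciferase expression after a fluorogenic Gly-Phe-AFC viability readout (25 uM final).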
Potency is read from the fitted curve at half-maximal effect; tags tell the direction and shape of the fitted curve.

Potency, active:
COc1ccc(/C=C2\CN(Cc3ccccc3)C/C(=C\c3ccc(OC)c(O)c3)C2=O)cc1O 3.98 µM
CCn1c(/C=C/c2ccc([N+](=O)[O-])o2)nc2ccccc2c1=O 8.91 µM
C#CCN(C[C@@H]1[C@@H](OC(=O)NCc2ccco2)[C@@H](OC(=O)NCc2ccco2)Cn2c(=O)ccc(=O)n21)S(=O)(=O)c1ccc(C)cc1 14.1 µM

Potency, inconclusive:
CCOC(=O)Nc1ccc(N2CCOCC2)c(S(=O)(=O)Nc2ccc(Cl)cc2)c1 14.1 µM [inhibitor, partial curve, poor fit]
COc1ccc([C@H]2C[C@H](O)[C@@H](n3cc(COC(=O)c4ccccc4)nn3)CN2CC2CCCCC2)cc1 39.8 µM [inhibitor, single point]
CCCC[C@@H]1CNC(=S)N1CCC12CC3CC(CC(C3)C1)C2 7.08 µM [inhibitor, partial curve, poor fit]
CCCCCCCCCCCCCCCCCCNc1ccn(C2OC(COP(=O)(O)OCC3OC(n4cc(F)c(=O)[nH]c4=O)CC3O)C(O)C2O)c(=O)n1 (stereo not drawn) 0.891 µM [inhibitor, full curve]
CC(=O)C1CCC2C3CCC4CC(OC(=O)CCC(=O)O)CCC4(C)C3C(=O)CC12C (stereo not drawn) 0.355 µM [inhibitor, partial curve, poor fit]
CCOc1ccccc1C=NNC(=O)CCCCC(=O)NN=Cc1ccccc1OCC 25.1 µM [inhibitor, single point]
Cc1cccc(Cn2c(C)nc3c(N)c(C)c(C)cc32)c1 17.8 µM [inhibitor, partial curve, poor fit]
CCCCCCCN(C(=O)CCl)c1ccccc1C 25.1 µM [inhibitor, partial curve, poor fit]
O=C(CCCCCn1c(=S)[nH]c2ccc(N3CCOCC3)cc2c1=O)NCc1ccc(Cl)cc1 15 µM [inhibitor, partial curve, poor fit]
CCOC(=O)c1c(NC(=O)CCl)sc(C(=O)N(CC)CC)c1C 25.1 µM [inhibitor, single point]
O=C(CCCN1CCc2[nH]c3ccc(F)cc3c2C1)c1ccc(F)cc1 39.8 µM [inhibitor, single point]
O=C(CSc1n[nH]c(-c2ccccn2)n1)Nc1ccccc1F 21.2 µM [inhibitor, partial curve, poor fit]
CCN(CC)S(=O)(=O)c1cc(NC(=O)CSc2nc3c(cc2C#N)C(=O)CC(C)(C)C3)ccc1C 6.7 µM [inhibitor, partial curve, poor fit]
O=[N+]([O-])c1ccc(N=Nc2ccc(O)c3ccccc23)cc1 39.8 µM [inhibitor, single point]
O=S(=O)(O)c1cc(O)c2c(O)c(N=Nc3cc(Cl)ccc3O)c(S(=O)(=O)O)cc2c1 6.31 µM [inhibitor, single point]
COc1ccc(-n2cc(-c3ccccc3)[n+]3c2CCCCC3)cc1 39.8 µM [inhibitor, single point]
CC(C)CC(N)c1csc(Nc2ncccn2)n1 (stereo not drawn) 17.8 µM [inhibitor, partial curve, poor fit]
Cc1ccc(C)c(N2CCN(C(=O)c3ccc(CSc4nc5ccncc5[nH]4)cc3)CC2)c1 22.4 µM [inhibitor, single point]
O=C(O)c1ccc2c(=O)n3c(nc2c1)/C(=C/c1ccc(Cl)c([N+](=O)[O-])c1)CC3 37.7 µM [inhibitor, single point]
NC(=O)CC(NC(=O)Cc1ccc(Br)cc1)c1ccc(N2CCC(Cc3ccccc3)CC2)c([N+](=O)[O-])c1 (stereo not drawn) 31.6 µM [inhibitor, partial curve]
COc1cc(CNC2CCCC2)cc(Cl)c1OCc1ccc(F)cc1 26.7 µM [inhibitor, partial curve, poor fit]
CCCCCCCCN1C(=O)[C@H](CC(=O)N2CCN(C(=O)c3ccco3)CC2)C[C@@]2(C(=O)OC)CCCCC=C12 39.8 µM [inhibitor, single point]
CN(C)CCCN(C(=O)c1ccc(Cl)s1)c1nc2cc3c(cc2s1)OCO3 35.5 µM [inhibitor, single point]

Potency, inactive:
CC1(C(=O)Nc2ccc3nc[nH]c3c2)CCN1C(=O)C1(c2ccccc2)CC1 (stereo not drawn)
O=C(CSc1nc2ccccc2c(=O)n1Cc1ccco1)NCc1ccco1
CCC(C)(C)NC(=O)c1cc(S(=O)(=O)N2CCCCC2)ccc1N1CCOCC1
Cc1nn(-c2cccc(Cl)c2)c2nc(-c3ccco3)cc(C(=O)O)c12
CC(C)Cc1ccc(S(=O)(=O)Nc2ccc3[nH]c(=O)[nH]c3c2)cc1
O=C(Nc1ccc(F)cc1)C(Sc1nc2ccccc2[nH]1)c1ccccc1 (stereo not drawn)
Cc1ccc(S(=O)(=O)N2CCCCC2CCNC(=O)C(=O)Nc2ccccc2F)cc1 (stereo not drawn)
C=C1CCN(c2ccc(C(=O)NCc3ccc(OC)cc3)cc2[N+](=O)[O-])CC1
O=C(Nc1ccc(NC(=S)NC(=O)c2ccco2)cc1)c1ccccc1
CN(C)/C=C/C(=O)c1ccc2noc(-c3ccc(F)cc3)c2c1
COc1ccc(C(=O)N(CCc2ccccc2)Cc2ccccc2)c(OC)n1
Cc1ccc(OCCNC(=O)Cc2ccc(S(=O)(=O)N3CCOCC3)s2)cc1
CCCCC1(C)Cc2ccccc2C(=S)N1 (stereo not drawn)
c1ccc(COc2cccc(CNCc3ccccn3)c2)cc1
COc1nnc(-c2ccc(C)c(S(=O)(=O)NC(C)C)c2)c2ccccc12
Cc1cc(NC(=O)c2ccc(C)c([N+](=O)[O-])c2)no1
O=C(O)COc1ccc(S(=O)(=O)N2CCCC2)cc1
